Assay results reported in the supplement of paper PMC3334620.
The full ranking holds about 33,000 sequences; the median of “E-score (-0.5 to 0.5)” is about -0.032, and the highest 2% start at about 0.36. Some of the results follow.

Each sequence was assayed against T1, Sko1 (UniProt Q02100) (assay: PBM E-score (8-mer binding enrichment) (E-score (-0.5 to 0.5)); higher = stronger / more preferred TF binding; most listed sequences are background and not binding sites). Settings: protein concentration: 200 nM; construct: GST-full length.
T1 sequence: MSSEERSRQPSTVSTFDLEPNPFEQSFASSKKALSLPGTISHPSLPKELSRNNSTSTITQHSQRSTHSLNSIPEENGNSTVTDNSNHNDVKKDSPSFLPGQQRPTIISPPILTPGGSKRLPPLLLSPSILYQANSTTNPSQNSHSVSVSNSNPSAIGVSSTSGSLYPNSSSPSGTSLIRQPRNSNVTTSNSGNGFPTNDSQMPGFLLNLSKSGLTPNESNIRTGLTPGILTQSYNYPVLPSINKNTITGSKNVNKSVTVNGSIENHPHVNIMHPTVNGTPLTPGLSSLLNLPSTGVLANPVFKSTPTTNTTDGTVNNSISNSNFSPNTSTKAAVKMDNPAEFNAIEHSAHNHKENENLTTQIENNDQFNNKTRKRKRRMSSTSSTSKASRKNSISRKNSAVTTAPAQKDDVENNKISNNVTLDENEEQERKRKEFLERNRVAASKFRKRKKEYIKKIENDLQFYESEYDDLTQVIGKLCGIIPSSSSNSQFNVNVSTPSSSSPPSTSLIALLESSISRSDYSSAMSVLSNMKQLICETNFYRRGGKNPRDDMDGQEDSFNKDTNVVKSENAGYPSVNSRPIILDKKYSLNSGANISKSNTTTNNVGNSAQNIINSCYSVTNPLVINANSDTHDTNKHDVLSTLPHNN
Experimental: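 Universal 'all 10-mer' protein binding microarrays (Agilent AMADID 015681) probed with GST-tagged S. cerevisiae TFs (full-length or DBD) made by in vitro transcription/translation (PURExpress), about 100-200 nM. Bound TF was detected with fluorescent anti-GST. Each ungapped 8-mer (which stands for itself and its reverse complement) is scored by the PBM enrichment score (E-score), a modified Wilcoxon-Mann-Whitney statistic from -0.5 to +0.5, computed with the Universal PBM Analysis Suite. Scale: above 0.35 generally sequence-specific binding.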

Row | Sequence | PBM E-score
1 | AAGCACAG | -0.122
2 | AACATTAT | 0.254
3 | CAGATGTA | -0.0918
4 | GGGGATAA | -0.0543
5 | AAAGCAAC | 0.031
6 | AACAGTCG | -0.00213
7 | TCTAGCCA | -0.0648
8 | CCCTTCGC | -0.283
9 | ACTCCGGG | -0.187
10 | GCCAAGTA | -0.194
11 | CGCTACTA | -0.00771
12 | GCGCTGTA | -0.0815
13 | GCACGAAA | 0.232
14 | ATTCGTGA | 0.258
15 | ACATTGCG | 0.242
16 | AACACCCA | -0.164
17 | GACAATGA | -0.0527
18 | ATCATATC | 0.213
19 | ATAGAGAT | 0.167
20 | GAGTGCCA | -0.312
21 | GCAGCCGA | -0.0383
22 | ATCAACGA | 0.0428
23 | CAGGACAC | -0.0751
24 | TATAATCA | 0.241
25 | AAATATAT | 0.214

Row | Sequence | PBM E-score
26 | AACAACCG | -0.023
27 | CAAGAATC | 0.0872
28 | CGCAAAAA | 0.152
29 | TGCTGACA | -0.0482
30 | CCCTGCGG | -0.353
31 | AACACTCT | 0.0483
32 | AAAAGTGG | -0.0168
33 | ACAATGTC | 0.0291
34 | AGTACTAT | -0.0967
35 | CCAAATGC | -0.101
36 | ATTACTCA | 0.141
37 | ACTATGCC | -0.0258
38 | TCGGGTCA | -0.115
39 | CGCTATAA | 0.112
40 | AAGCGTGT | -0.0816
41 | ATCCGCCG | -0.0883
42 | AGTTGTTA | 0.0184
43 | AGCCAGTG | -0.181
44 | AGTTAACC | -0.0694
45 | AGGAGCAT | 0.052
46 | CGAGACGC | -0.106
47 | AATACATT | 0.0985
48 | CGCATAGA | -0.15
49 | CACTTGAA | 0.0535
50 | AAACGCTT | 0.077

Row | Sequence | PBM E-score
51 | TCTTAACA | 0.0969
52 | TATGGCGA | 0.0668
53 | CCCGATGA | 0.0115
54 | ATAGAGAA | 0.0325
55 | ACAGGCAC | -0.0663
56 | CAGTCAAA | -0.00635
57 | CTAATCGA | -0.00313
58 | AATACCGA | -0.25
59 | ACTCTGAA | -0.0554
60 | CGTGACTA | 0.242
61 | CAATGCAG | 0.0232
62 | AGATAAGA | 0.193
63 | AGCGCAGC | -0.321
64 | CTTACAGA | -0.161
65 | ACGTAGGC | 0.425
66 | AGATACCG | 0.0467
67 | ACCTTAGG | -0.188
68 | GGCGTTAC | -0.0443
69 | ACGAAGGG | 0.129
70 | TACTTTCA | 0.0182
71 | CCGTCACA | 0.163
72 | CAATCGTC | 0.22
73 | CTTACATA | 0.207
74 | AAAGCTCT | -0.223
75 | AACCTATC | -0.186

Row | Sequence | PBM E-score
76 | AGCGGAGG | -0.203
77 | CTTGGCTC | -0.165
78 | CCCCCTTA | -0.31
79 | AGCTTGAC | -0.139
80 | GAATCACA | 0.0598
81 | CCCTACTC | -0.0828
82 | AATCTACA | 0.198
83 | AGTGACAC | 0.191
84 | CGCTTAAC | -0.0195
85 | CAGACGAG | -0.202
86 | CCGCGCAG | -0.0518
87 | CCGTATCG | -0.171
88 | CCGTCGTC | -0.0549
89 | ATTCGCGC | 0.0774
90 | GGGCCACA | -0.261
91 | ATTGAATG | 0.075
92 | GACCGATC | -0.227
93 | AAGGTCCA | -0.266
94 | GTGTTGAA | 0.14
95 | CATAGGTC | 0.0182
96 | GGGCCCCA | -0.266
97 | AGAAGCCC | -0.154
98 | CGCAGACG | 0.131
99 | CAAGTACG | 0.135
100 | ATCCTGCA | 0.183

Row | Sequence | PBM E-score
101 | AGTCCTCA | -0.218
102 | GGTGCTCA | -0.176
103 | AATCTAGA | 0.00671
104 | CGGACCGC | -0.281
105 | AGAAGCAC | -0.0239
106 | ATCTAACG | 0.176
107 | AGTAGGAC | -0.152
108 | ACGTTAAG | 0.325
109 | ACTGATAG | -0.0528
110 | TGCCACCA | -0.17
111 | CGGATACC | -0.0823
112 | ACCTAAGC | 0.0757
113 | CGTTCTCC | 0.0102
114 | AGATCAGA | -0.0691
115 | ACGTCCAC | 0.314
116 | AAAGGTAT | 0.0611
117 | AGCAGTCG | -0.0899
118 | ACCGAAAT | 0.0128
119 | AGCCACCC | -0.355
120 | GAACCAAA | -0.149
121 | AGCATAAA | 0.0727
122 | CAACTAAG | 0.0159
123 | GCTGCGCC | -0.315
124 | CAGCTGCA | -0.228
125 | CAAGTCTC | -0.19

Row | Sequence | PBM E-score
126 | AGCCCTTC | -0.197
127 | TCTGGGCA | -0.222
128 | ACAAACAG | -0.0756
129 | AGCCGACT | -0.165
130 | CGCGCCGA | -0.11
131 | CCCGGCCA | -0.334
132 | GATAAGAA | 0.217
133 | TGAAGACA | 0.0964
134 | CGAGCATC | -0.211
135 | AGCCGTAC | 0.0111
136 | AGAACGAA | 0.0852
137 | GCCCTAGC | -0.218
138 | CATATTTA | 0.186
139 | AAGATAAT | 0.19
140 | CCGCGGTC | -0.247
141 | GCGGTCAA | -0.234
142 | TTTGCAAA | 0.0584
143 | GTCTAGCA | -0.00592
144 | TCACGTCA | 0.484
145 | GAAGTGCA | -0.08
146 | AGTGGGGC | -0.273
147 | TAAAGTGA | 0.255
148 | ACTCCAAG | -0.0313
149 | ACGGTAAA | 0.0336
150 | GAGTTGCC | -0.118

Row | Sequence | PBM E-score
151 | ACCCTTGA | -0.0782
152 | ACAATGCG | 0.121
153 | ACAGTGTA | 0.0382
154 | AGTTGCGA | 0.156
155 | AACTGTCA | 0.038
156 | ACCTGCAG | -0.176
157 | CATCTCGC | -0.129
158 | AGCTAGTC | -0.00295
159 | CCCTCGAG | -0.232
160 | CCTATGAG | -0.025
161 | AAGACGTC | 0.419
162 | AAAAACGC | 0.141
163 | AGATGACG | 0.476
164 | AGAGCGAC | 0.0314
165 | GCCACGAA | -0.128
166 | ATACTTTC | 0.0725
167 | ACTCTGTC | 0.0399
168 | GTCAGCAC | -0.00835
169 | CTTGATAA | 0.0902
170 | CGCTCGCA | -0.0661
171 | AAAACAGA | 0.112
172 | ATATGTCC | -0.0276
